Test system: Escherichia coli K12 10083 (NCIMB)
Assay: Hygienic handrub efficacy on artificially contaminated hands of volunteers, EN 1500:1997
Assay type: in vivo
Settings: mean of 15 subjects; rub-in 3 ml/30 s, repeat once

CC(C)O [propan-2-ol 60% (v/v), Propan-2-ol]
log y (log10 post values), mean: 3.56 log10
log z (log10 reduction factor), mean: 3.519 log10

From patent US20090042870A1, “Antimicrobial Composition” (priority 2005, published 2009)
